This is an account of results in the supplement of paper PMC8728848.

The list shows a part of the results.

Holding throughout (test): glycan array binding signal (z-score within array); higher = stronger binding
What all share (conditions): glycan notation: IUPAC condensed, linker removed

For one assay, the target named is Neu5Ac(a2-6)Gal. The gist of the method:
(§1)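 From the Consortium for Functional Glycomics database, 3228 arrays were curated, keeping only those whose protein sequence was available. Binding is given as a within-array Z-score averaged across arrays sharing a protein sequence and across linkers. Negative Z-scores can be read as non-binding.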

Assay [1] concerns the target Neu5Ac(a2-6)Gal(b1-3)GlcNAc(b1-3)[Gal(b1-4)GlcNAc(b1-6)]Gal(b1-4)Glc. The gist of the method: as §1
The target of a further assay is Neu5Ac(a2-6)Gal(b1-4)Glc. An outline of the steps:
as §1

Assay [2] addresses Neu5Ac(a2-6)Gal(b1-4)GlcNAc. An outline of the steps: as §1
Assay [3] addresses Neu5Ac(a2-6)Gal(b1-4)GlcNAc(b1-2)Man. An outline of the steps: as §1
The target of assay [4] is Neu5Ac(a2-6)Gal(b1-4)GlcNAc(b1-2)Man(a1-3)Man(b1-4)GlcNAc(b1-4)GlcNAc. The gist of the method:
as §1

For assay [5], the target named is Neu5Ac(a2-6)Gal(b1-4)GlcNAc(b1-2)Man(a1-3)[Gal(b1-4)GlcNAc(b1-2)Man(a1-6)]Man(b1-4)GlcNAc(b1-4)GlcNAc. An outline of the steps:
as §1

Assay [6] concerns the target Neu5Ac(a2-6)Gal(b1-4)GlcNAc(b1-2)Man(a1-3)[GlcNAc(b1-4)][Neu5Ac(a2-6)Gal(b1-4)GlcNAc(b1-2)Man(a1-6)]Man(b1-4)GlcNAc(b1-4)GlcNAc. An outline of the steps:
as §1

The target of assay [7] is Neu5Ac(a2-6)Gal(b1-4)GlcNAc(b1-2)Man(a1-3)[Man(a1-6)]Man(b1-4)GlcNAc(b1-4)GlcNAc. The gist of the method: as §1
Assay [8] deals with Neu5Ac(a2-6)Gal(b1-4)GlcNAc(b1-2)Man(a1-3)[Neu5Ac(a2-3)Gal(b1-4)GlcNAc(b1-2)Man(a1-6)]Man(b1-4)GlcNAc(b1-4)GlcNAc. The gist of the method:
as §1

Assay [9] addresses Neu5Ac(a2-6)Gal(b1-4)GlcNAc(b1-2)Man(a1-3)[Neu5Ac(a2-6)Gal(b1-4)GlcNAc(b1-2)Man(a1-6)]Man(b1-4)GlcNAc(b1-4)GlcNAc. The gist of the method: as §1
The target in assay [10] is Neu5Ac(a2-6)Gal(b1-4)GlcNAc(b1-2)Man(a1-3)[Neu5Ac(a2-6)Gal(b1-4)GlcNAc(b1-2)Man(a1-6)]Man(b1-4)GlcNAc(b1-4)[Fuc(a1-6)]GlcNAc. An outline of the steps:
as §1

Assay [11] has as its target Neu5Ac(a2-6)Gal(b1-4)GlcNAc(b1-2)Man(a1-6)Man(b1-4)GlcNAc(b1-4)GlcNAc. An outline of the steps: as §1
Assay [12] concerns the target Neu5Ac(a2-6)Gal(b1-4)GlcNAc(b1-2)Man(a1-6)[Gal(b1-4)GlcNAc(b1-2)Man(a1-3)]Man(b1-4)GlcNAc(b1-4)GlcNAc. The gist of the method: as §1
Assay [13] addresses Neu5Ac(a2-6)Gal(b1-4)GlcNAc(b1-2)Man(a1-6)[GlcNAc(b1-2)Man(a1-3)]Man(b1-4)GlcNAc(b1-4)GlcNAc. An outline of the steps:
as §1

Assay [14] concerns the target Neu5Ac(a2-6)Gal(b1-4)GlcNAc(b1-2)Man(a1-6)[Man(a1-3)]Man(b1-4)GlcNAc(b1-4)GlcNAc. An outline of the steps: as §1
Assay [15] concerns the target Neu5Ac(a2-6)Gal(b1-4)GlcNAc(b1-2)[Neu5Ac(a2-6)Gal(b1-4)GlcNAc(b1-4)]Man(a1-3)[GlcNAc(b1-4)][Neu5Ac(a2-6)Gal(b1-4)GlcNAc(b1-2)[Neu5Ac(a2-6)Gal(b1-4)GlcNAc(b1-6)]Man(a1-6)]Man(b1-4)GlcNAc(b1-4)GlcNAc. The gist of the method: as §1
The target in assay [16] is Neu5Ac(a2-6)Gal(b1-4)GlcNAc(b1-2)[Neu5Ac(a2-6)Gal(b1-4)GlcNAc(b1-4)]Man(a1-3)[GlcNAc(b1-4)][Neu5Ac(a2-6)Gal(b1-4)GlcNAc(b1-4)Man(a1-6)]Man(b1-4)GlcNAc(b1-4)GlcNAc. An outline of the steps: as §1
For assay [17], the target named is Neu5Ac(a2-6)Gal(b1-4)GlcNAc(b1-2)[Neu5Ac(a2-6)Gal(b1-4)GlcNAc(b1-6)]Man(a1-6)[Neu5Ac(a2-6)Gal(b1-4)GlcNAc(b1-2)Man(a1-3)][GlcNAc(b1-4)]Man(b1-4)GlcNAc(b1-4)GlcNAc. An outline of the steps:
as §1

Assay [18] concerns the target Neu5Ac(a2-6)Gal(b1-4)GlcNAc(b1-3)Gal(b1-3)GlcNAc. The gist of the method: as §1
Assay [19] has as its target Neu5Ac(a2-6)Gal(b1-4)GlcNAc(b1-3)Gal(b1-4)GlcNAc. The gist of the method:
as §1

Assay [20] has as its target Neu5Ac(a2-6)Gal(b1-4)GlcNAc(b1-3)Gal(b1-4)GlcNAc(b1-2)Man(a1-3)[Neu5Ac(a2-6)Gal(b1-4)GlcNAc(b1-3)Gal(b1-4)GlcNAc(b1-2)Man(a1-6)]GalNAc. An outline of the steps:
as §1

Assay [21] has as its target Neu5Ac(a2-6)Gal(b1-4)GlcNAc(b1-3)Gal(b1-4)GlcNAc(b1-3)Gal(b1-4)GlcNAc. The gist of the method:
as §1

B1: InvD YPIII (Yersinia pseudotuberculosis), B1JSC0 (protein)
chain: MIKYFSFFKKPEPIVGILPNRQSHHILPTHIRRVAWGTLLLQLFIPLSVSFSPAIAAMKASKADTMVSYSSTEPYVLGSGETVAMVAKKYGITVDELKKINIYRTFSRPFTALTTGDEIDIPRKASPFSVDNNKDNRLSVENTLAGHAVAGATALSNGDVAKSGERMVRSAASNEFNNSAQQWLSQFGTARVQLNINDDFHLDGSAADVLIPLYDNEKSILFTQLGARNKDSRNTVNMGAGVRTFQGNWMYGANTFFDNDLTGKNRRIGVGAEAWTDYLKLSANNYFGITDWHQSRDFIDYNERPANGYDLRAEAYLPSYPQLGGKAMYEKYRGDDVALFGKDNRQKNPHAITAGVNYTPIPLVTIGAEHRAGKGGQNDSNINFQLNYRLGETWQSHIDPSAVAASRTLAGSRYDLVERNNHIVLDYQKQNLVRLSLPDSLAGDPFSQLSVTAQVTATHGLERIDWQSAELMAAGGVLKQTSKNGLEITLPEYQMNRTGGNSYILNAIAYDTQGNASSQASMLITVNAQKINIANSTLVAVPINIEANNSDTSVVTLTLKDDNNIPVTGQDVTFLSPLGTLSAMTDSGNGVYTATLTAGTVSGTTAVSSNINGSALDMTPATVTLNGNSGELSITHSMLVAAPVNIEANGSDTSVVTLTLRDSNNNPVTGQTVTFAGTLGTLGAVTEGSSGVYTATLTAGIMVGTSSITASVNSTALGVTPATVTLNGDSGNLSTTNSTLVAAPVNIEANSSDTSVVTLTLRDNNNNPVTGQTVVFTSTLGTLGNVTEQASGVYTATLTAGTVSGVASLSVSVGGNALGVTPATVTLNGDSGNLSTTNSTLVAAPVNIEANSSDTSVVTLTLRDNNNNPVTGQTVNFAGTLGTLGTVSEGSSGVYTTTLTAGTVAGVASLSVNVGGNALGVTPATVTLNGNSGNLSATNSTLVAAPVNIEANSSDTSVVTLTLRDNNNNPVTGQTVAFTSTLGTLGNVTEQASGVYTATLTAGTVSGVASLSVSVNSNALGVTPATVTLNGDSGNLSTTNSTLVAAPVNIEANSSDTSVVTLTLRDNNNNPVTGQTVAFTSTLGTLGNVTEQASGLYTATLTAGTVSGVASLSVNVGGNALGVTPATVTLNGDSGNLSATNSTLVAAPVNIEANSSDTSVVTLTLRDNNNNPVTGQTVAFTSTLGTLGNVTEQASGLYTATLTAGTVSGVASLSVNVGGTALGVTPATVTLNGDSGNLSTTNSTLVAAPVNIEANSSDTSVVTLTLRDNNNNPVTGQTVAFTSTLGTLGNVTEQASGLYTATLTAGTVSGVASLSVSVNSTALGVTPATVTLNGDSGNLSTTNSTLVAAPVNIEANSSDTSVVTLTLRDNNNNPVTGQTVAFTSTLGTLGNVTEQASGVYTATLTAGTVAGVASLSVNVGGNALGVTPATVTLNGDSGNLSTTNSTLVAAPVNIEANSSDTSVVTLTLRDNNNNPVTGQTVAFTSTLGTLGNVTEQASGVYTATLTAGTVSGVASLSVSVGSSALGVTPATVTLNGDSGNLSTTNSTLVAAPVNIEANNSDTSVVTLTLRDNNNNPVTGQTVAFTSTLGTLGNVTEQASGVYTATLTAGTVSGVASLSVSVNSNALGVTPATVTLNGDSGNLSTTNSTLVAAPVNIEANSSDTSVVTLTLRDNNNNPVTGQTVVFTSTLGTLGNVTEQASGLYTATLTAGTVSGVASLSVSVGGNALGVTGNITLAPGALDAARSILAVNKPSINADDRIGSTITFTAQDAQGNAITGLDIAFMTDLENSQIMTLVDHNDGTYTANINGTQTGIANIAVQSSGATIAGLAATMVTITPGAWNTTQATPVMTVALPITTCQSSSGVYKRYYIGIVTHELYDNYGNEISGILTYNLGAGRYTTVTSQNSSVSGSNGLTRRSNSPVSHFILTSDAYTSQAACYAERIANVNVTITVTAITDDFKTSAVNKVFILGTGSN
Consider B1, for which the “glycan array binding signal (z-score)” value with Neu5Ac(a2-6)Gal was -0.331; in assay [1], -0.104; with Neu5Ac(a2-6)Gal(b1-4)Glc, -0.201; in [2] it was -0.215; in [3], -0.082; in assay [4], -0.111. Further, the “glycan array binding signal (z-score)” value was -0.301 in [5]; -0.322 in assay [6]; -0.236 in assay [7]; 0.032 in assay [8]; 0.162 in assay [9]; 0.467 in [10]. Moreover, the “glycan array binding signal (z-score)” value is -0.284 in assay [11]; -0.275 in assay [12]; 0.111 in [13]; -0.151 in assay [14]; 0.031 in assay [15]; -0.265 in assay [16]. Also, the “glycan array binding signal (z-score)” value is -0.206 in assay [17]; -0.292 in assay [18]; -0.017 in assay [19]; -0.414 in assay [20]; -0.164 in assay [21].
